In PubChem BioAssay AID588342 (National Center for Advancing Translational Sciences (NCATS), 2011):
Among all 360,000 compounds or so, about 25,000 (6.9%) were called active. The inconclusive results got no clear call from the source; some entries with a clear call stand among them for comparison. The call rests on the fitted dose curve; in most records, active means well fitted inhibition curve with a large enough effect; inconclusive means small, poorly fitted or top-dose-only effect; inactive means flat fitted curve, though single readings scatter. A potency beside an inconclusive call is a rough fit, not a confirmed value.

molecular target: Luciferin 4-monooxygenase (Photinus pyralis) (UniProt P08659); experiment: qHTS profiling assay for firefly luciferase inhibitor/activator using purifed enzyme and Km concentrations of substrates (counterscreen for miR-21 project); settings: purified FLuc, luminescence inhibition; series mostly up to 57.5 µM; activity change, negative = inhibition: at the top concentration; further: nearly all actives have a fitted effect of over 55% in size;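 on activity change, negative = inhibition: plate controls were vehicle for no effect and reference inhibitor for full effect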
Summary of the method: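 Biochemical qHTS of compounds, final roughly 60 µM downward over six points, against 10 nM purified firefly luciferase using Km concentrations of substrates (10 uM D-luciferin, 10 uM ATP) in Tris acetate pH 7.5 buffer; luminescence output.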
Potency means the concentration at half of the fitted maximal effect; tags describe the fitted curve by direction and shape.

UniProt P08659, sequence (P08659 whole entry, looked up): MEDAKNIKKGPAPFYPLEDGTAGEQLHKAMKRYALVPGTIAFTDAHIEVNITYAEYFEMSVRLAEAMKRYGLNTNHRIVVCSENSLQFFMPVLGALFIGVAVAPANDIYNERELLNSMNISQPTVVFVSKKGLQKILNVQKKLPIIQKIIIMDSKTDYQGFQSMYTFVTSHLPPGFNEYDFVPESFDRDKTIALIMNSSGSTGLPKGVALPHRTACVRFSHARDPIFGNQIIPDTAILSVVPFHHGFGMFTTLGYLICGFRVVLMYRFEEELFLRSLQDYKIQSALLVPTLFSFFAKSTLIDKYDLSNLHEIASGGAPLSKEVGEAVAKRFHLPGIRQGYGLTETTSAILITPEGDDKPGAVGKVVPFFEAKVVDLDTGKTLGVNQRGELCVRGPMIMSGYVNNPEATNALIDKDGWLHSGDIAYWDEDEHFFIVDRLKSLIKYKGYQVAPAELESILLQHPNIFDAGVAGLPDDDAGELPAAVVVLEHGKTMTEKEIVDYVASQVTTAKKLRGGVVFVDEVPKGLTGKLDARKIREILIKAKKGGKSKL

Row | SMILES | Potency | activity change, negative = inhibition
1 | COc1ccc(OCC(=O)NC(=S)NNC(=O)COc2ccc(Br)cc2Cl)cc1 | inconclusive: 26.9 µM [inhibitor, single point] | –
2 | Cc1nnc(SCc2nc3ccccc3[nH]2)s1 | – | inactive: 3.24%
3 | COc1ccc(/C=N/N=C2/NC(=O)CC(C(=O)O)S2)cc1 (centres undefined) | inconclusive: 37.9 µM [inhibitor, partial curve, poor fit] | –
4 | O=C(NNC(=O)c1cc(Br)c(Br)s1)c1ccncc1 | inconclusive: 23.9 µM [inhibitor, partial curve, poor fit] | –
5 | Brc1ccc(N/N=C(/N=Nc2nn[nH]n2)c2ccccc2)cc1 | active: 19 µM | –
6 | COc1ccccc1NC(=O)NNC(=O)c1ccc(-c2ccccc2)cc1 | inconclusive: 30.1 µM [inhibitor, single point] | –
7 | COC1CCCN(C(=O)c2ccc3nc(Cc4cccc(Cl)c4)oc3c2)C1 (centres undefined) | – | inactive: 3.5%
8 | CCC(=O)c1ccc(N2CCCC2)c(F)c1 | active: 16.9 µM | –
9 | CC1CCCC(C)N1C(=O)CSc1nnnn1C1CCCC1 (centres undefined) | – | inactive: -15.9%
10 | O=C(Cn1cc(SCc2c(F)cccc2Cl)c2ccccc21)N1CCCCC1 | inconclusive: 26.9 µM [inhibitor, partial curve, poor fit] | –
11 | O=C(CCCN1C(=O)/C(=C/c2ccccc2Cl)SC1=S)N1CCCC1 | inconclusive: 23.9 µM [inhibitor, single point] | –
12 | Cn1c(=O)n(Cc2ccccc2)c(=O)c2c1nc1n2CCN1c1ccccc1 | inconclusive: 21.3 µM [inhibitor, partial curve, poor fit] | –
13 | Cc1ccccc1-n1c(C)cc(/C=C2/C(=N)N3C(c4ccccc4)=CSC3=NC2=O)c1C | inconclusive: 6.01 µM [inhibitor, partial curve] | –
14 | O=c1[nH]n2c(-c3ccccc3)nc(O)c2c2ccccc12 | inconclusive: 23.9 µM [inhibitor, single point] | –
15 | O=C(O)c1cccc(Nc2nc(-c3ccccc3)nc3ccccc23)c1 | inconclusive: 26.9 µM [inhibitor, single point] | –
16 | CCc1nnc(NC(=O)CSc2ccc(-c3nc4ccccc4[nH]3)cn2)s1 | inconclusive: 6.01 µM [inhibitor, partial curve] | –
17 | CCOC(=O)c1c(C)[nH]c(C(=O)CN2C(=O)NC(CC)(c3ccccc3)C2=O)c1C (centres undefined) | – | inactive: -12.3%
18 | COc1ccc(-c2noc(CCC(=O)N3CCN(Cc4ccccc4)CC3)n2)cc1 | inconclusive: 23.9 µM [inhibitor, partial curve, poor fit] | –
19 | CN(C)S(=O)(=O)c1cccc(NC(=O)CSc2nc3ccccc3[nH]2)c1 | – | inactive: -15.8%
